# In PMC4336329 (PLoS ONE, 2015):
# About 2,200 (0.71%) of roughly 310,000 compounds showed an effect of 50% or more. Effects have a minus sign here. The list shows a part of the results.
# Target: human ether-à-go-go-related gene (hERG) potassium channel (human, UniProt Q12809)
# Assay: primary screen, population patch clamp on CHO cells stably expressing hERG
# Chain of human ether-à-go-go-related gene (hERG) potassium channel (Q12809 whole entry, looked up): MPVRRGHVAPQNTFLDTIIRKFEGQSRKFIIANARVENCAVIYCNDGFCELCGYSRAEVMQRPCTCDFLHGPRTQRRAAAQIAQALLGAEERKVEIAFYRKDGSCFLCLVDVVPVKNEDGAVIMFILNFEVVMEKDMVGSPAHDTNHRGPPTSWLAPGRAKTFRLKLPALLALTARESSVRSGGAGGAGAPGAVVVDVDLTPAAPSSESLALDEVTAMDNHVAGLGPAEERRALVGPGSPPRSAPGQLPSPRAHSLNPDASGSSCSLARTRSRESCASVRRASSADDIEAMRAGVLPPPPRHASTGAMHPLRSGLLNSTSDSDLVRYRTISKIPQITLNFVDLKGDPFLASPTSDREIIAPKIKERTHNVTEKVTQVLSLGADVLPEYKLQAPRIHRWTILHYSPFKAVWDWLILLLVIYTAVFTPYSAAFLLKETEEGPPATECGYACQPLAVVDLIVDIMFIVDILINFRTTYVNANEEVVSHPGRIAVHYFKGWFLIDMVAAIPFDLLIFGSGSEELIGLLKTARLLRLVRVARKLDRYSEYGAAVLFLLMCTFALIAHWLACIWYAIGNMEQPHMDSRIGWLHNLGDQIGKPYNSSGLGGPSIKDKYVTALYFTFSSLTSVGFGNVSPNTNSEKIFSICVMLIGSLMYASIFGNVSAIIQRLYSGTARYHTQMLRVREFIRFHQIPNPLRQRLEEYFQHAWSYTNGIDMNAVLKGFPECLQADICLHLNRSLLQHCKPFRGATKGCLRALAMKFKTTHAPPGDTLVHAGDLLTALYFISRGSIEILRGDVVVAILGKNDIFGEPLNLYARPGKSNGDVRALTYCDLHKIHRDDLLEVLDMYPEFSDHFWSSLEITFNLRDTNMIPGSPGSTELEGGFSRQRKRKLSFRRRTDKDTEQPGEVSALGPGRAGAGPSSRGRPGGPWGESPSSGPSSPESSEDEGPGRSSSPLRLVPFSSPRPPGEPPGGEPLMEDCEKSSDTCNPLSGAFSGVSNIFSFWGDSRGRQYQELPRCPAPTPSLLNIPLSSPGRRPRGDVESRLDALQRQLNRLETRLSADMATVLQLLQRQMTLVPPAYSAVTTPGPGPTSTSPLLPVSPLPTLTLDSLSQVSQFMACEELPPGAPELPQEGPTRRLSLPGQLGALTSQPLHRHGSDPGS
row,Compound,"hERG current change (%, negative = inhibition) at 1uM [%]"
1,Cc1cc(N2C(=O)C(=O)/C(=C(/O)c3ccc(Cl)cc3)C2c2cccc(Br)c2)no1 (stereo not drawn),2.11
2,COc1ccc(N(C(=O)CNC(=O)c2cccs2)C(C(=O)NCC2CCCO2)c2ccc(OC)c(OC)c2)cc1 (stereo not drawn),14
3,COCCCNC(=S)Nc1cccc(S(=O)(=O)NC2=NCCC2)c1,8.68
4,Nc1ccc(S(=O)(=O)NC2(C(F)(F)F)NC(=O)N(Cc3ccccc3)C2=O)cc1 (stereo not drawn),10.2
5,CCCC(=O)OCC(=O)Nc1cc([N+](=O)[O-])ccc1OC,10.8
6,COC(=O)c1cc(C(=O)OC)cc(-n2c(C)cc(C(=O)CC#N)c2C)c1,8.63
7,COc1ccccc1-n1cnnc1SCC(=O)c1ccc[nH]1,11
8,CCOC(=O)C1CCN(C(=S)NC(=O)c2cccs2)CC1,17.3
9,C=C(C)COc1ccc(-c2ncncc2-c2ccc(OC)cc2)c(O)c1,19.1
10,Cc1nc2ccc(NC(=O)c3cccc(S(=O)(=O)N(C)c4ccccc4)c3)cc2s1,8
11,O=C(NNS(=O)(=O)c1ccc2ccccc2c1)NC1CCCCC1,-0.731
12,C/[N+]([O-])=C1\Cc2ccccc2C1=O,7.59
13,O=C(CSc1n[nH]c(-c2ccncc2)n1)Nc1ccc(F)cc1,11.6
14,Cc1ccc(C(=O)c2ccc(CC(=O)[O-])n2C)cc1.O.[Na+],13.6
15,CCc1cccc(C)c1NC(=O)CSc1nc2ccc(N3C(=O)c4ccccc4C3=O)cc2s1,9.97
16,COc1ccc(CN(C)CC(=O)Nc2ccccc2C(=O)NC2CC2)cc1,-0.648
17,Cc1c(C)[n+](=O)c2c(n1[O-])CCC2,-9.81
18,O=C1CCCc2[nH]nc(-c3cccnc3)c21,11.2
19,O=C(COc1ccc(F)cc1Br)NCC1(N2CCOCC2)CCCCC1,0.472
20,C=CCON/C(CCC)=C1\C(=O)C(C(=O)OC)C(C)(C)CC1=NC (stereo not drawn),14.9
21,COc1cc(S(=O)(=O)N(Cc2ccc(C)cc2)C2CCCCC2)ccc1-n1cnnn1,-2.32
22,O=S1(=O)CC(O)C(NCc2cccnc2)C1 (stereo not drawn),4.27
23,CC(C)c1nc(-c2c(N)n(C)c(=O)n(C)c2=O)sc1C(=O)C(C)(C)C,6.76
24,CN(C)C(CNC(=O)C1CCN(S(=O)(=O)c2cccc(C(F)(F)F)c2)CC1)c1ccccc1 (stereo not drawn),5.49
